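Compound exposure: 48 hours, 5 concentrations, 96-well plates. Here, GI50 denotes the concentration required for 50% inhibition of growth. At the TGI there is no net growth.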
Each compound was assayed on NCI-H322M lung (assay: NCI tumour cell line growth inhibition, 48 h).
O=C(c1cc(Cl)ccc1Cl)N1CCN(c2ccc(Cl)c(Cl)c2)CC1 gave a TGI of over 100 µM.
In the case of Cc1cc(S(=O)(=O)Nc2n[nH]c(-c3ccc(Cl)cn3)n2)c(S)cc1Cl, the TGI was over 100 µM.
In the case of CN(C)c1ccc(/C=C2\C[C@H]3[C@@H]4CCc5cc(OCCN6CCCC6)ccc5[C@H]4CC[C@]3(C)[C@H]2O)cc1, the TGI was 33.3 µM.
Compound CC(C)(C)OC/C=C(\Br)CO has a TGI of over 100 µM.
Work on COc1cc(-c2nc3nc(N4CCN(C)CC4)ccc3[nH]2)c(OC)c2[nH]c(CO)nc12 yielded a TGI of over 100 µM.
O=C(O)CCn1cnc2c(=S)nc[nH]c21 was tested, and the TGI was over 100 µM.
Work on O=C1C(c2ccc([N+](=O)[O-])cc2)=[N+]([O-])c2ccc([N+](=O)[O-])cc21 yielded a TGI of over 100 µM.
Work on COc1cc2c(cc1OC)[C@@H]1C(=O)c3cc4c(cc3[C@@H]1N(CCN(C)C)C2=O)OCO4 yielded a GI50 of 0.43 µM and a TGI of 4.55 µM.
CCOC(=O)c1nnsc1NC(=O)NN was tested, and the TGI was over 100 µM.
With COc1ccc(N2C(=O)/C(=C/c3ccc(N(CCC#N)CCC#N)cc3C)N=C2/C=C\c2ccccc2)cc1 the TGI was over 100 µM.
For CC(=O)N/N=C1/NN(C(C)=O)C2(S1)C(=O)Nc1ccc(C)cc12 (centres undefined), the TGI was over 100 µM.
Compound COc1ccc(N[C@H]([C@@H](c2ccccc2)S(=O)c2ccc(C)cc2)C(F)(F)F)cc1 (some centres undefined) has a TGI of over 100 µM.
CCOC(=O)C(Cc1c(C=O)[nH]c2ccccc12)(NC(=O)c1ccccc1)C(=O)OCC gave a TGI of 33.5 µM.
